These results are taken from paper PMC5836133.

This is one part of the list. At the low end of the ranking, values are background and their order means little.

The test has as its system T1, GST-NbGlk1(82-244).
T1 sequence: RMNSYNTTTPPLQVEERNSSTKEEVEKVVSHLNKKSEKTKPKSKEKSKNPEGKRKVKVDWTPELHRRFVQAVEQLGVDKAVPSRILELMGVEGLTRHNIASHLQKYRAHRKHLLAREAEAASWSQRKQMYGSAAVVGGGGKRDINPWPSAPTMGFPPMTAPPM
As to the kind of experiment: protein-binding microarray.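 Also: rank-based score ranging −0.5 to +0.5 with E above 0.45 taken as significant binding.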 The settings on record: NbGlk1 is a Golden2-like transcription factor of Nicotiana benthamiana; high values mean tight binding; most listed sequences are background and not binding sites; double strand, one strand shown.
As for ATGCTGTG, the binding signal amounted to 0.0921 E-score. AGGGGAGC displayed a binding signal of -0.258 E-score. Under AAGGTTGG stands -0.222 E-score; under ATGGAGGG, -0.16 E-score. Then AGGGGTAG, with -0.169 E-score; and CACCAACA, with -0.0219 E-score. Then AGACACCT, with -0.0591 E-score; and AGGTCGGA, with 0.0259 E-score. Sequence ATAAGTCG gave a binding signal of -0.088 E-score. Then AGTGAAAG, with -0.101 E-score. ACAACGAG: the binding signal came to 0.0714 E-score.

Take ATTGGCGG: the binding signal was -0.0331 E-score. For ATATCAGA, the binding signal is 0.343 E-score.

For the sequence AACTTCTA, the binding signal is -0.0215 E-score. ACCGCCGA: the binding signal is -0.0341 E-score. AGCCCCCA: the binding signal is -0.375 E-score. Then AGCCTGCG, with -0.298 E-score. Then ACCCTGAA, with -0.103 E-score. Then AATCCCCG, with 0.362 E-score; and AGGTAAAA, with 0.106 E-score; and AAGTCATC, with -0.231 E-score. Regarding AGCTAACG, the binding signal was -0.192 E-score. Consider AGATACAC, for which the binding signal worked out at 0.183 E-score. Consider CAAAATAC, for which the binding signal is 0.244 E-score.

Sequence AGACCGTC returned a binding signal of -0.239 E-score. With AGTCCTAA, the binding signal is -0.165 E-score.

In turn, ACTGATAT had a binding signal of 0.33 E-score. Then ACTATCGC, with -0.0293 E-score; and AGCATTGC, with -0.132 E-score. AATGACCC gave a binding signal of -0.24 E-score. For AGAAGGAC, the binding signal was -0.222 E-score. ACGCTGGG yielded a binding signal of -0.209 E-score. Then ACCAATCC, with 0.129 E-score; and ACCAGAGT, with -0.21 E-score; and AATCTCAC, with 0.394 E-score. As to ATCGCATC, the binding signal amounted to 0.189 E-score.

The sequence ATAATGCA gave a binding signal of 0.192 E-score.

Take AGAAAGGA: the binding signal is 0.0249 E-score.

The sequence AATACGTC returned a binding signal of 0.14 E-score. Then ACTCATGC, with -0.101 E-score. Then ATCCGAAG, with 0.192 E-score. In the case of CACTCTCA, the binding signal was -0.217 E-score. As to ACTAGTAC, the binding signal was -0.0323 E-score. The sequence ATGGCAGC registered a binding signal of -0.181 E-score.

With ACTGTGCT, the binding signal was -0.161 E-score.

Turning to ATTAAAAG, the binding signal turned out to be 0.136 E-score. Then AGAGTAAC, with -0.0594 E-score; and AACCTTAG, with -0.0856 E-score; and CAATTCTC, with 0.0898 E-score. Then AACGATCT, with 0.151 E-score; and AGGGGTGA, with -0.0964 E-score.

As for AGGATAGC, the binding signal was found to be 0.0187 E-score. Under ATATAAGA stands 0.21 E-score. Then ACACCGAA, with 0.143 E-score; and AATCAGCC, with 0.211 E-score; and AGGGCCCT, with -0.312 E-score. Under CACTAGCC stands -0.187 E-score. CACAGTCA had a binding signal of -0.0461 E-score. Take ACGATTCA: the binding signal was determined as 0.109 E-score. Then AGTGGTAG, with -0.0335 E-score; and AATAAAGA, with 0.192 E-score.

AATGTCGA registered a binding signal of 0.0139 E-score. Take CACAAGCA: the binding signal was -0.0607 E-score. For the sequence ACTTCGAG, the binding signal was -0.164 E-score.

AGAATTTG displayed a binding signal of 0.293 E-score. As to ACTGAGTC, the binding signal was -0.206 E-score. Under ATTCAAAC stands 0.0715 E-score. Then AAATCATA, with 0.343 E-score. Then ATGAATCA, with 0.175 E-score; and ACGTACAA, with 0.0901 E-score. On to ACGCGTAC, for which the binding signal was -0.0754 E-score. Then ATTGAAAG, with 0.0488 E-score; and AGGGGTAA, with 0.0854 E-score. Then AGGGGCCG, with -0.278 E-score. Then AGAGTCAT, with 0.0401 E-score; and AAATCAAC, with 0.349 E-score; and ACATTTAG, with -0.00602 E-score. For CAGATGTA, the binding signal was -0.0502 E-score. As to AACTTAGT, the binding signal was -0.145 E-score. Then AGGGTTCC, with -0.264 E-score; and AGGATGTG, with 0.033 E-score; and ACTATATA, with 0.125 E-score.

Sequence ATAAGGGC displayed a binding signal of -0.209 E-score. Under AGTTCCGA stands -0.0741 E-score; under ATGCAGCC, -0.246 E-score. Under AAACCCGT stands -0.105 E-score. Then ACTCTTCC, with -0.263 E-score; and ACTTATGC, with -0.107 E-score.

Turning to ACTCCGAA, the binding signal was -0.034 E-score. Then ATAACGTC, with 0.0192 E-score; and AGGGCACG, with -0.223 E-score.

Regarding AAGTAAAA, the binding signal was 0.21 E-score.

For the sequence AGAAGAGC, the binding signal is -0.0676 E-score. Regarding ACTGTAGC, the binding signal came to 0.0356 E-score. AGAGGTTC displayed a binding signal of -0.2 E-score. For AAGAGGCA, the binding signal is -0.126 E-score. Under ACAACCGA stands -0.0668 E-score. Under ATCTGAGA stands 0.327 E-score; under ATCATTTA, 0.151 E-score; under CAATAATA, 0.157 E-score.

As for ATAAGTAA, the binding signal worked out at 0.18 E-score. Under AAAATATG stands 0.218 E-score; under CAACGGAA, 0.0739 E-score; under AATTAAGA, 0.187 E-score. With ACGAACAG, the binding signal is -0.21 E-score. Regarding ATGCTGTA, the binding signal was 0.0608 E-score.

In turn, AATGCCTC returned a binding signal of -0.204 E-score. The sequence ATAACGCC came in with a binding signal of -0.127 E-score. Under AAGTTACG stands -0.00986 E-score; under AACGAGGG, -0.236 E-score; under AGCCTGAC, -0.16 E-score.

With AGCACTTG, the binding signal was -0.238 E-score.

In turn, ATAACAAA returned a binding signal of 0.109 E-score.

With ACTAAGTC, the binding signal is -0.0822 E-score. Under ATGACCAC stands -0.236 E-score; under ACCACCGA, -0.0886 E-score; under ACGGACCG, -0.172 E-score.

Sequence ATTCGGTG came in with a binding signal of 0.141 E-score. Under ACCGCCTG stands -0.218 E-score; under AAGAGCCG, -0.16 E-score; under AAGCGACG, -0.0497 E-score. Then ACACCGCA, with -0.0104 E-score; and ACCAGGTG, with -0.249 E-score; and ATCCCAAC, with 0.175 E-score.

AGGAATTC yielded a binding signal of 0.0745 E-score.

In turn, AGAACTTC registered a binding signal of -0.134 E-score.

For the sequence AACATATC, the binding signal is 0.279 E-score. Then AGGACCCT, with -0.359 E-score. CAACACTG: the binding signal was determined as 0.00603 E-score. As to ATGATGAA, the binding signal turned out to be 0.0329 E-score. Regarding AGATAACC, the binding signal was 0.0595 E-score. Under AGCGTGAA stands -0.147 E-score; under AGCTCAAC, -0.0128 E-score. Under AACCGTTG stands -0.117 E-score; under AATCTGAA, 0.444 E-score. The sequence ACCTAAGC returned a binding signal of -0.204 E-score. Under ACTAAATA stands 0.0579 E-score; under AGGCTCAT, -0.23 E-score; under AAGCCATC, -0.0651 E-score. Under AGTACTTC stands -0.0113 E-score.

Take ATTGAATC: the binding signal amounted to 0.106 E-score.

AACACCTG showed a binding signal of -0.0685 E-score. Under AAATATGT stands 0.259 E-score.

In the case of ACATTGAT, the binding signal turned out to be 0.0383 E-score. Then ATGTAAAC, with 0.00398 E-score; and AACGGCTC, with -0.0966 E-score. Regarding CAATCGAA, the binding signal turned out to be 0.202 E-score. Then ATTGGCCA, with -0.144 E-score. As for ACTGCCCA, the binding signal was -0.22 E-score. Then AAAACACA, with 0.0683 E-score; and AACAATCT, with 0.244 E-score. Under ACCGTACC stands -0.0621 E-score; under AGCGACCA, -0.21 E-score. The sequence ATAGGTAG showed a binding signal of -0.0826 E-score. Then ATTTGATG, with 0.116 E-score. For AAACGAGG, the binding signal is -0.0779 E-score. Then ATCAATGC, with 0.0156 E-score; and AAGAAGGG, with -0.135 E-score. AAGATTTA registered a binding signal of 0.333 E-score. Under AGATCACA stands 0.185 E-score.

Regarding ACGCAGTA, the binding signal is -0.0909 E-score. Under AAGCCTCA stands -0.166 E-score. Under ATCACATA stands 0.212 E-score; under ATCTCGGA, 0.36 E-score; under ATTGAGGG, -0.0357 E-score. Under AAGCTTAA stands -0.0444 E-score; under AGCGTTAG, -0.0918 E-score; under ACTTTGGA, 0.00547 E-score. As for ACGCCCGC, the binding signal was -0.279 E-score. For ATCCAGGC, the binding signal was found to be 0.093 E-score. Under AAGGTCCG stands -0.208 E-score. Under ACTGGCAT stands -0.0937 E-score.
